Here are results for 56 compounds from article PMC4336329 (PLoS ONE, 2015).

Each structure is given as a SMILES string. Screen size: about 310,000 compounds; about 2,200 (0.71%) showed an effect of 50% or more. Effects have a minus sign here. The list shows a part of the results.

Chain of human ether-à-go-go-related gene (hERG) potassium channel (Q12809 whole entry, looked up): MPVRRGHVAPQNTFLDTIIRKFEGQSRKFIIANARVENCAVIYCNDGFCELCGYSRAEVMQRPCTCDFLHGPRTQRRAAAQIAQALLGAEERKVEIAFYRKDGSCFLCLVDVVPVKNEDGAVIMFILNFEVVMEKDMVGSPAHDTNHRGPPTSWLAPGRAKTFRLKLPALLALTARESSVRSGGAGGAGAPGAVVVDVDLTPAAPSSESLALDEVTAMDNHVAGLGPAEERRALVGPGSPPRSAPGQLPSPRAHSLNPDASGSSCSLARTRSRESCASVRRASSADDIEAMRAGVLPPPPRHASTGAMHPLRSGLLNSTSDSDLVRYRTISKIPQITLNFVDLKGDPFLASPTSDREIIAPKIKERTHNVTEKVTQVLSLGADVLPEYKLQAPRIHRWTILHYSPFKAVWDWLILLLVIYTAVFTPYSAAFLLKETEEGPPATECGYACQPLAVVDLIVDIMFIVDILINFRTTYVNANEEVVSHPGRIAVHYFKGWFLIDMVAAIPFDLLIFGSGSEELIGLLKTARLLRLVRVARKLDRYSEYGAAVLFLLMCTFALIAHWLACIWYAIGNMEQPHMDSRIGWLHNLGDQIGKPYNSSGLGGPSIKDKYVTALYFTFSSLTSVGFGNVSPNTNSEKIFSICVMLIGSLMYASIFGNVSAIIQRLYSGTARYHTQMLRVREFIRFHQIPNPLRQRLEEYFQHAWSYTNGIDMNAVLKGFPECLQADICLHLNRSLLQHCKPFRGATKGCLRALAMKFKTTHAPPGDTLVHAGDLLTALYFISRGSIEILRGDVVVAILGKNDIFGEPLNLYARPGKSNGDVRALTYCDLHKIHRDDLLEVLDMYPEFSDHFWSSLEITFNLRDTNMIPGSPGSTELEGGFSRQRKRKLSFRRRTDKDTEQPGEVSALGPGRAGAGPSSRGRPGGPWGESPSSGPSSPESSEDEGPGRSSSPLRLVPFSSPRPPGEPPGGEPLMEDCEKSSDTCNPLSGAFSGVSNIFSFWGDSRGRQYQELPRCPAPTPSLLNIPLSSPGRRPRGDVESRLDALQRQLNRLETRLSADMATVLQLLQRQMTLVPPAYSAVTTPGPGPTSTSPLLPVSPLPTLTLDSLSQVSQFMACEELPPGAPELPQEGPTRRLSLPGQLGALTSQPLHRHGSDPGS

This experiment concerns the target human ether-à-go-go-related gene (hERG) potassium channel (human, UniProt Q12809). As to the kind of experiment: primary screen, population patch clamp on CHO cells stably expressing hERG.
For the compound `CCN1CCc2c(sc(NC(=O)c3ccc(S(=O)(=O)N(C)CC4CCCO4)cc3)c2C(N)=O)C1.Cl` (centres unmarked), the “hERG current change (%, negative = inhibition) at 1uM” value was found to be 1.8%.

In the case of `O=C(O)CSC1c2ccccc2C(=O)N1Cc1ccccc1` (centres unmarked), the “hERG current change (%, negative = inhibition) at 1uM” value came to 12.1%.

Consider `COc1ccc(CCN(C)C2CCCN(C(=O)c3sccc3C)C2)cc1OC` (centres unmarked), for which the “hERG current change (%, negative = inhibition) at 1uM” value was -40.3%.

Consider `Cc1ccoc1C(=O)NCc1occc1C(=O)O`, for which the “hERG current change (%, negative = inhibition) at 1uM” value was -4.3%.

On to `COc1cc(C2SC(C)C(=O)N2CCc2ccccc2)cc(OC)c1OC` (centres unmarked), for which the “hERG current change (%, negative = inhibition) at 1uM” value came to 1.35%.

Regarding `CN(CCc1ccccn1)c1ncnc2[nH]ncc12`, the “hERG current change (%, negative = inhibition) at 1uM” value came out at 4.32%.

Consider `CCOC(=O)N/N=C/C=C/c1ccccc1`, for which the “hERG current change (%, negative = inhibition) at 1uM” value was found to be 11.8%.

For `Cc1cc(C(=O)NCCCn2ccnc2)cs1`, the “hERG current change (%, negative = inhibition) at 1uM” value is on record as -4.08%.

For `CCOc1cc(C2C(C(=O)OC)=CN(Cc3ccc(Cl)cc3)C=C2C(=O)OC)ccc1O`, the “hERG current change (%, negative = inhibition) at 1uM” value is listed as 10.3%.

As to `N#C/C(=C\c1ccc2c(c1)OCCO2)C(=O)NC1CCCCC1`, the “hERG current change (%, negative = inhibition) at 1uM” value was 5.87%.

For `CCCNC(=O)COC(=O)c1cccnc1Nc1ccccc1F`, the “hERG current change (%, negative = inhibition) at 1uM” value is on record as 5.28%.

In the case of `Cc1ccc(C(=O)NN(CCC#N)C2=NS(=O)(=O)c3ccccc32)cc1`, the “hERG current change (%, negative = inhibition) at 1uM” value was 11.6%.

In the case of `Nc1nonc1-c1noc(COc2ccccc2Cl)n1`, the “hERG current change (%, negative = inhibition) at 1uM” value is recorded as -4.75%.

For `O=C(CCc1cccc(Cl)c1)NC1CCCN(Cc2ccccc2F)C1` (centres unmarked), the “hERG current change (%, negative = inhibition) at 1uM” value came out at 10.7%.

For `CCNS(=O)(=O)c1ccc(CCC(=O)NCc2ccccc2)cc1`, the “hERG current change (%, negative = inhibition) at 1uM” value is 7.05%.

On to `Cc1ccc(-c2onc3ccc(C4(C)OCCO4)cc23)cc1`, for which the “hERG current change (%, negative = inhibition) at 1uM” value is recorded as 7.67%.

With `COc1ccccc1N1CCN(C(CNC(=O)c2ccco2)c2cccnc2)CC1` (centres unmarked), the “hERG current change (%, negative = inhibition) at 1uM” value is recorded as -0.755%.

In the case of `Br.CCCN1CCc2cc(O)cc3c2[C@H]1Cc1ccc(O)c(O)c1-3.O`, the “hERG current change (%, negative = inhibition) at 1uM” value is -16.6%.

On to `CN(C)C(=O)c1cnc(Sc2ncc(C(F)(F)F)cc2Cl)n1C`, for which the “hERG current change (%, negative = inhibition) at 1uM” value came to 14.9%.

For `Oc1cc2ccccc2nc1-c1ccccc1Cl`, the “hERG current change (%, negative = inhibition) at 1uM” value was 16.9%.

Regarding `O=C(NCc1ccco1)c1ccc(CS(=O)(=O)Cc2ccc(Cl)cc2)o1`, the “hERG current change (%, negative = inhibition) at 1uM” value turned out to be 1.46%.

As for `C/C(=N/NC(=O)c1ccc2c(c1)OCO2)c1ccc(NC(=O)C(F)(F)F)cc1`, the “hERG current change (%, negative = inhibition) at 1uM” value amounted to 11.4%.

For `Cc1ccc2oc(C(=O)NCC(c3ccco3)N(C)C)c(C)c2c1` (centres unmarked), the “hERG current change (%, negative = inhibition) at 1uM” value is 3.53%.

As to `Clc1cc(Cl)c(-c2cc(Cl)c(Cl)cc2Cl)cc1Cl`, the “hERG current change (%, negative = inhibition) at 1uM” value was 12.7%.

Consider `CCOc1ccc2nc(NC(=O)c3cc([N+](=O)[O-])ccc3N3CCOCC3)sc2c1`, for which the “hERG current change (%, negative = inhibition) at 1uM” value is recorded as 8.4%.

As to `COC(=O)C1CCN(C2CC(=O)N(c3cc(C)cc(C)c3)C2=O)CC1` (centres unmarked), the “hERG current change (%, negative = inhibition) at 1uM” value amounted to 6.59%.

For `CC(C)c1ccc(N2C(=O)CC(Sc3ncn[nH]3)C2=O)cc1` (centres unmarked), the “hERG current change (%, negative = inhibition) at 1uM” value was found to be 9.56%.

On to `COc1cccc(OCC(=O)NNC(=O)c2ccc(-c3ccccc3)cc2)c1`, for which the “hERG current change (%, negative = inhibition) at 1uM” value was -2.47%.

Turning to `COc1ccc(/C=C(\C#N)C(=O)OCC(=O)NCc2ccc(Cl)cc2)cc1`, the “hERG current change (%, negative = inhibition) at 1uM” value is recorded as 3.57%.

`Cc1ccc(/C=N/NC(=O)c2ccc(-c3ccccc3)cc2)o1`: the “hERG current change (%, negative = inhibition) at 1uM” value turned out to be 5.02%.

`CN(C)S(=O)(=O)N1CCN(C(=O)c2cccs2)CC1`: the “hERG current change (%, negative = inhibition) at 1uM” value stood at 6.56%.

As for `N#CC1=C(N)C(C#N)(C#N)C(c2ccncc2)C2CN(C(=O)OCc3ccccc3)CC=C12` (centres unmarked), the “hERG current change (%, negative = inhibition) at 1uM” value amounted to 8.49%.

For the compound `CC1CCCCN1CCCNC(=O)c1ccc2c(=O)n(CCc3ccccc3)c(=O)[nH]c2c1` (centres unmarked), the “hERG current change (%, negative = inhibition) at 1uM” value is on record as 5.96%.

With `CCC(C(=O)Nc1c(C)cc(C)cc1C)N1CCCCCC1` (centres unmarked), the “hERG current change (%, negative = inhibition) at 1uM” value amounted to 9.72%.

As for `O=C(O)C1CC=CCC1C(=O)Nc1cccc(C(=O)N2CCCCC2)c1` (centres unmarked), the “hERG current change (%, negative = inhibition) at 1uM” value was 9.67%.

On to `CCN(CC)c1ccc(NC(=O)c2ccccc2)cc1S(=O)(=O)Nc1ccccc1OC`, for which the “hERG current change (%, negative = inhibition) at 1uM” value is listed as 11.2%.

Take `Cc1ccc(C)c2sc(N)nc12`: the “hERG current change (%, negative = inhibition) at 1uM” value is given as 9.5%.

As to `Cc1occc1C(=O)N/N=C/c1c[nH]c2ccccc12`, the “hERG current change (%, negative = inhibition) at 1uM” value is given as -0.697%.

As to `C/C(=N\NS(=O)(=O)c1ccccc1)c1ccc2c(c1)OCO2`, the “hERG current change (%, negative = inhibition) at 1uM” value is reported as -9.43%.

For `Cc1ccc(S(=O)(=O)N(Cc2ccccc2)c2ccccc2C(=O)NCc2cccnc2)cc1`, the “hERG current change (%, negative = inhibition) at 1uM” value came out at 3.82%.

For `Cc1ccc(NC(=O)C2CCCN(S(=O)(=O)c3c(C)noc3C)C2)cc1` (centres unmarked), the “hERG current change (%, negative = inhibition) at 1uM” value is 12.8%.

Take `CC(C)c1nnc(NC(=O)C2CCCN2C(=O)Nc2ccc(F)cc2)s1` (centres unmarked): the “hERG current change (%, negative = inhibition) at 1uM” value stood at 13.1%.

For `CN(C)c1ccc(-c2noc(C3CCN(S(=O)(=O)c4cccc(C(=O)O)c4)CC3)n2)cc1`, the “hERG current change (%, negative = inhibition) at 1uM” value was 13.6%.

Take `CCCn1c(NC(=O)c2cccc(S(=O)(=O)N3CCCC3)c2)nc2ccccc21`: the “hERG current change (%, negative = inhibition) at 1uM” value is given as -9.49%.

With `O=C(Nc1ccc(OCc2ccccc2)cc1)Nc1ccccc1C(=O)NCCCN1CCOCC1`, the “hERG current change (%, negative = inhibition) at 1uM” value stood at 13.8%.

As to `CCn1cnc2c1c(=O)n(CC(=O)N1CCc3ccccc31)c(=O)n2Cc1ccccc1`, the “hERG current change (%, negative = inhibition) at 1uM” value came out at 11%.

`N/C(Cc1cccs1)=N\OC(=O)COc1ccccc1`: the “hERG current change (%, negative = inhibition) at 1uM” value was determined as 12.3%.

Consider `N#CCCn1cc(/C=N/NC(N)=S)c(-c2ccc(-c3ccccc3)cc2)n1`, for which the “hERG current change (%, negative = inhibition) at 1uM” value was found to be 7.42%.

For `Cc1ccc2[nH]c3c(N4CCN(Cc5ccccc5)CC4)ncnc3c2c1`, the “hERG current change (%, negative = inhibition) at 1uM” value came out at 6.45%.

As for `COC(=O)C1=C(c2c(C)noc2C)C[C@@H]2CC[C@H]1N2C(=O)NC1Cc2ccccc2C1`, the “hERG current change (%, negative = inhibition) at 1uM” value stood at 6.81%.

With `CCCCN(C(=O)CSCC(=O)Nc1ccc(OC)cc1)c1c(N)n(Cc2ccccc2)c(=O)[nH]c1=O`, the “hERG current change (%, negative = inhibition) at 1uM” value was determined as 6.01%.

For the compound `Cc1ccc(C)c(S(=O)(=O)N2CCCC2CNC(=O)C(=O)NC2CC2)c1` (centres unmarked), the “hERG current change (%, negative = inhibition) at 1uM” value is 19.1%.

Take `CC(C)(C)c1cc(NC(=O)COC(=O)C2CC2)n(-c2ccccc2)n1`: the “hERG current change (%, negative = inhibition) at 1uM” value is recorded as 6.45%.

Turning to `COC(=O)c1cc(C(=O)OCC(=O)NCc2ccc3c(c2)OCO3)cc([N+](=O)[O-])c1`, the “hERG current change (%, negative = inhibition) at 1uM” value amounted to 8.19%.

In the case of `CCCN1C2CCCC1CC(NC(=O)Nc1ccc(C(C)C)cc1)C2` (centres unmarked), the “hERG current change (%, negative = inhibition) at 1uM” value came to 14.2%.

As to `O=c1[nH]c(Nc2ccc3c(c2)OCCO3)nnc1Cc1ccc(Cl)cc1`, the “hERG current change (%, negative = inhibition) at 1uM” value was 24.5%.
